Measured values reported in paper PMC3542062, “A phenyl-thiadiazolylidene-amine derivative ejects zinc from retroviral nucleocapsid zinc fingers and inactivates HIV virions” (Retrovirology, 2012).

System: NNRTIR K103N:Y181C HIV-1 strain
Experiment: GFP-assay in Jurkat A72 (LTR-GFP) cells
Assay type: cell-based
Details: Human immunodeficiency virus 1, Jurkat, 72 h, read-out: EC50 NNRTIR K103N:Y181C

## Cn1sc(=N)nc1-c1ccccc1 [WDO-217, 2-methyl-3-phenyl-2H-[1,2,4]thiadiazol-5-ylideneamine]
  EC50: 1300 ± 400 nM
